The source gives no read counts; variants with many changes may rest on few reads.
B1: OR4K15 (parent)
chain: GUUAACGGUCAUAGGCCAUGGAAACUAGGAGCACCAUUUCGCUGCCAGUGAAGAAAUGAACAAAGAAAAUCUGGGCCAGGCAGGCAUCAAAAGAAAUAGUCUUGCGCUCAACCAGAAAGUCUGUAAUCAUUUUAAGGGUA

Variants of: B1
Test: self-cleavage, relative activity (ratio to wild type); higher = more cleavage; in vitro, sequencing; the parent is a self-cleaving ribozyme

Row | Variant | self-cleavage
1 | GAUAACGGUCAUAGGCCAUGGAAUCUAGGAGCACCAUUUCGCUGCCAGUGAAGGAAUGAACAAAGAAAAUCUGGGCCAGGCAGGCAUCAAAAGAAAUAGUCUUGCGCUCAACCAGAAAGUCUGUAAUCAUUUUAAGGGUA [U2A A24U A54G] | 1.04
2 | GAUAACGGUCAUAGGCCAUGGAAACUAGGAGCUCCAUUUCGCUGCCAGUGAAGAAAUGAACAAAGAAAAUCUGGGCCAGGCAGGCAUCAAAAGAAAUAGUCUUGCGCUCAGCCAGAAAGUCUGUAAUCAUUUUAAGGGUA [U2A A33U A111G] | 0.05
3 | GAUAACGGUCAUAGGCCAUGGAGACUAGGAGCACCAUUUCGCUGCCAGUGAAGAAAUGAACAAAGAAAAUCUGGGCCAGGCAGGCAUCAAAAGAAAUAGUCUUGCGCUCAACCAGAAAGUCUGUAAUCAUUUUAAGGGUG [U2A A23G A140G] | 0.87
4 | GAUAACGGUCAUAGGCCAUGGUAACUAGGAGCACCAUUUUGCUGCCAGUGGAGAAAUGAACAAAGAAAAUCUGGGCCAGGCAGGCAUCAAAAGAAAUAGUCUUGCGCUCAACCAGAAAGUCUGUAAUCAUUUUAAGGGUA [U2A A22U C40U A51G] | 0.93
5 | GAUAACGGUCUUAGGCCAUGGAAACUAGGAGCACCAUUCCGCCGCCAGUGAAGAAGUGAACAAAGAAAAUCUGGGCCAGGCAGGCAUCAAGAGAAAUAGUCUUGCGCUCAACCAGGAAGUCUGUAAUCAUUUUAAGGGUA [U2A A11U U39C U43C A56G A91G A116G] | 0.27
6 | AUUAACGGUCAUAGGCCAUGGAGACUAGGAGCACCAUCUCGCUGCCAGUGAAGAAAUGAACAAAGAAAAUCUGGGCCAGGCAGGCAUCAAAAGAAGUAGUCUUGCGCUCAACCAGAAAGUCUGUAAUCAUUAUAAGGGUA [G1A A23G U38C A96G U132A] | 0.72
7 | AUUAACGGGCAUAGGCCAUGGAAACUAGGAGCACCAUUUCGCUGCCAGUGAAGAAAUGAACAAAGAAAAUCUGGGCCAGGCAGGCAUCAAAAGAAAUAGUCUUGCGCUCAACCAGUAAGUCUGUAAUCAUCUUAAGGGUA [G1A U9G A116U U131C] | 0.06
8 | AUUAACGGUCAUAGGCCAUGGAAACUAGGAGCACCUUUUCGCUGCCAGUGAAGAAAUGAACAAAGAAAAUCUGGGCCAGGCAGGCAUCAAAAGAAAUAGUCUUGCGCUCAACCAGAAAGUCUGUAAUCACUUUAAGGGUA [G1A A36U U130C] | 1.73
9 | AUUAACGGUCAUAGGCCAUGGAAACUAGGAGCACCAUUUCGCUGCCAGUGAAGAAAUGAACAAAGAAAAUCUGGGCCAGGCAGGCAUCAAGAGAAAUAGUCUCGCGCUCAACCAGAAAGUCUGUAAUCAUUUUAAGGGUA [G1A A91G U103C] | 1.43
10 | AUUAACGGUCAUAGGCCAUGGAAACUAGGAGCACCAAUUCGCUGCCAGUGAAGAAAUGAACAAAGAAAAUCUGGGCCAGGCAGGCAUCAAAAGAAAUAGUCUUGCGCUCAACCAGAAUGUCUGUAAUCAUUUUAAGGGUA [G1A U37A A118U] | 1.07
11 | UUUAACGGUCAUAGGCCAUGGAAACUAGGAGCACCAUUUCGCUGCCAGUGAAGAAAUGAACAAAGAAGAUCUGGGCCAGGCAGGCAUCAAAAGAAGUAGUCUUGCGCUCAACCAGAAAGUCUGUAAUCAUUUUAAGGGUA [G1U A68G A96G] | 2.14
12 | GAUAACGGUCAUAGGCCGUGGAAACUAGGAGCACCAUUUCGCUGCCAGUGGAGAAAUGAACAAAGAAAAUCUGGGCCAGGCAGGCAUCAAAAGAAAUAGUCUCGCGCUCGACCAGGAAGCCUGUAAUCAUUUUAAGGGUA [U2A A18G A51G U103C A110G A116G U120C] | 0.02
13 | GAUAACGGUCAUAGGCCAUGGAAACUGGGAGCACCAUUUCGCUGCCAGUGAAGAAAUGGACAAAGAAAAUCUGGGCCAGGCGGGCAUCAAAGGAAAUAGUCUUGCGCUCAACCAGAAAGUCUGUAACCUUUUUAAGGGUA [U2A A27G A59G A82G A92G U127C A129U] | 0
14 | GAUAACGGUCGUAGGCCAUGGAAACUAGGAGCACCAUUUCGCUGCCAGUGAAGAAACGAACAAAGAAAAUCUGGGCCUGGCAGGCAUCAAAAGAAAUAGUCUUGCGCUCAACCAGAAAGUCUGUAGUCAUUUUAAGGGUA [U2A A11G U57C A78U A126G] | 0.19
15 | AUUAACGGUCAUAGGCCAUGGAAACUAGGAGCACCAGUUCGCUGCCAGAGAAGAAAUGAACAAAGAAAAUCUGGGCCUGGCAGGCAUCAAAAGAAAUAGUCUUGCGCUCAACCAGAAAGUCUGUAAUCAUUUUAAGGGUA [G1A U37G U49A A78U] | 0.59
16 | GAUAACGGUCAUAGGCCAUGGAAACUAGGGGCACCUUUUCGCUGCCAGUGAAGAAAUGAACAAAGAAAAUCUGGGCCAGGCAGGCAUCAGGAGAAAUAGUCUUGCGCUCAACCAGAAAGUCUGUAAUCAUUUUAAGGGUA [U2A A30G A36U A90G A91G] | 0.78
17 | AUUAACGGUCAUAGGCCAUGGAAACUAGGAGCACCUUCUCGCUGCCAGUGAAGAAAUGAACAAAGAAAACCUGGGCCAGGCAGGCAUCAAAAGAAAUAGUCUUGCGCUCAACCAGAAAGUCUGUAACCAUUUUAAGGGUA [G1A A36U U38C U70C U127C] | 1.25
18 | UUUAACGGUCAUAGGCCAUGGAAACUAGGAGCACCAUUUCGCUGCCAGCGAAGAAAUGAACAAGGAAAAUCUGGGCCAGGCAUGCAUCAAAAGAAAUAGUCUUGCGCUCAACCAGAAAGUCUGUAUUCAUUUUAAGGGUA [G1U U49C A64G G83U A126U] | 0.44
19 | AUUAACGGUCAUAGGCCAUGGAAGCUAGGAGCACCAUUUCGCUGCCAGUGAAGAAAUGAACAAAGAAGAUCUGGGCCAGGCAGGCAUCAAAAGAAAUAGUCUCGCGCUCAACCAGAAAGUCUGUAAUCAUUUUAAGGGUA [G1A A24G A68G U103C] | 0.9
20 | GAUAACGGUCAUAGGCCAUGGAGACUGGGAGCACCAUUUCGCUGCCAGUGAAGAAAUGAACAAAGAAAAUCUGGGCCAGGCAGGCAUCAAAAGAAAUAGUCUUGCGCUCAACCAGAAAGUCUGUAAUCAUUUUAAGGGUA [U2A A23G A27G] | 1.11
21 | GAUAACGGUCAUAGGCCAUGGAGACUAGGAGCACCAUUUCGCUGCCAGCGAAGAGAUGAACAAAGAAAACCUGGCCCAGGCAGGCACCAAAAGAAAUAGUCUUGCGCUCAACCAGAAAGUCUGUAAUCAUUUUAAGGGUA [U2A A23G U49C A55G U70C G75C U87C] | 0.2

From the RNAGym collection of RNA variant scans (doi:10.7554/elife.90254)
